A lower IC50 marks a more sensitive line; a fit beyond the top or the lowest dose is shown as a bound at that dose. For AUC the same curve is integrated over the 256-fold range of doses and scaled to a fraction; it is 1 without any effect and falls as sensitivity rises. For some of these results: Any top dose called inferred is not printed in the source and was worked back from the curve model.
Columns and labels:
Experiment in all cases: Viability of human cancer cell lines after 72 h of drug (GDSC screen)
XAV 939 = compound: Oc1nc(-c2ccc(C(F)(F)F)cc2)nc2c1CSCC2 [XAV 939]; settings: top dose 5 µM; top dose inferred
Experimental: (§1)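 Human cancer cell lines in 384-well plates, medium with 10% serum, drug for 72 h over a 256-fold dose range (nine 2-fold or five 4-fold steps up to the top dose). Adherent lines were fixed and stained with the nucleic acid dye Syto60, suspension lines read with resazurin; signal relative to control wells, capped at 0 and 100%. One two-parameter sigmoid per drug and line, fitted in a mixed model over all curves with the slope shared within a line.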

GSK-650394 = compound: O=C(O)c1ccc(-c2c[nH]c3ncc(-c4ccccc4)cc23)cc1C1CCCC1 [GSK-650394]; settings: top dose 16 µM; top dose inferred
Experimental: as §1

NPK76-II-72-1 = compound: COc1cc(C(=O)NC2CCN(C)CC2)ccc1Nc1ncc2c(n1)N(C1CCCC1)C(C)CC(=O)N2C [NPK76-II-72-1]; settings: top dose 10.24 µM; top dose inferred
Experimental: as §1

BMS-345541 = compound: Cc1ccc2nc(NCCN)c3ncc(C)n3c2c1 [BMS-345541]; settings: top dose 16 µM
Experimental: as §1

AZD7762 = compound: NC(=O)Nc1cc(-c2cccc(F)c2)sc1C(=O)N[C@H]1CCCNC1 [AZD7762]; settings: top dose 2 µM
Experimental: as §1

Bexarotene = compound: C=C(c1ccc(C(=O)O)cc1)c1cc2c(cc1C)C(C)(C)CCC2(C)C [Bexarotene]; settings: top dose 8 µM
Experimental: as §1

Etoposide = compound: COc1cc([C@@H]2c3cc4c(cc3[C@@H](O[C@@H]3O[C@@H]5CO[C@@H](C)O[C@H]5[C@H](O)[C@H]3O)[C@H]3COC(=O)[C@H]23)OCO4)cc(OC)c1O [Etoposide]; settings: top dose 16 µM
Experimental: as §1

YK 4-279 = compound: COc1ccc(C(=O)CC2(O)C(=O)Nc3c(Cl)ccc(Cl)c32)cc1 [YK 4-279]; settings: top dose 10 µM
Experimental: as §1

## D-392MG (glioma, adherent)
XAV 939
  AUC: 0.915
  IC50: > 5 µM
GSK-650394
  AUC: 0.905
  IC50: > 16 µM
NPK76-II-72-1
  AUC: 0.959
  IC50: > 10.2 µM
BMS-345541
  AUC: 0.888
  IC50: > 16 µM
AZD7762
  AUC: 0.681
  IC50: 0.487 µM
Bexarotene
  AUC: 0.909
  IC50: > 8 µM
Etoposide
  AUC: 0.899
  IC50: > 16 µM
YK 4-279
  AUC: 0.797
  IC50: 6.83 µM

## D-502MG (glioma, adherent)
XAV 939
  AUC: 0.874
  IC50: > 5 µM
GSK-650394
  AUC: 0.973
  IC50: > 16 µM
NPK76-II-72-1
  AUC: 0.965
  IC50: > 10.2 µM
BMS-345541
  AUC: 0.94
  IC50: > 16 µM
AZD7762
  AUC: 0.843
  IC50: > 2 µM
Bexarotene
  AUC: 0.973
  IC50: > 8 µM
Etoposide
  AUC: 0.971
  IC50: > 16 µM
YK 4-279
  AUC: 0.71
  IC50: 3.46 µM

## D-542MG (glioma, adherent)
XAV 939
  AUC: 0.982
  IC50: > 5 µM
GSK-650394
  AUC: 0.984
  IC50: > 16 µM
NPK76-II-72-1
  AUC: 0.968
  IC50: > 10.2 µM
BMS-345541
  AUC: 0.983
  IC50: > 16 µM
AZD7762
  AUC: 0.848
  IC50: > 2 µM
Bexarotene
  AUC: 0.88
  IC50: > 8 µM
Etoposide
  AUC: 0.961
  IC50: > 16 µM
YK 4-279
  AUC: 0.764
  IC50: 4.41 µM

## DEL (lymphoid neoplasm, suspension)
XAV 939
  AUC: 0.988
  IC50: > 5 µM
GSK-650394
  AUC: 0.705
  IC50: 3.25 µM
NPK76-II-72-1
  AUC: 0.919
  IC50: 9.95 µM
BMS-345541
  AUC: 0.896
  IC50: 12.3 µM
AZD7762
  AUC: 0.464
  IC50: 0.102 µM
Bexarotene
  AUC: 0.993
  IC50: > 8 µM
Etoposide
  AUC: 0.315
  IC50: 0.345 µM
YK 4-279
  AUC: 0.541
  IC50: 0.788 µM

## DG-75 (Burkitt lymphoma, suspension)
XAV 939
  AUC: 0.97
  IC50: > 5 µM
GSK-650394
  AUC: 0.979
  IC50: > 16 µM
NPK76-II-72-1
  AUC: 0.862
  IC50: 8.93 µM
BMS-345541
  AUC: 0.74
  IC50: 4.89 µM
AZD7762
  AUC: 0.459
  IC50: 0.0964 µM
Bexarotene
  AUC: 0.983
  IC50: > 8 µM
Etoposide
  AUC: 0.926
  IC50: > 16 µM
YK 4-279
  AUC: 0.736
  IC50: 2.98 µM

## DMS-53 (small cell lung carcinoma, adherent)
XAV 939
  AUC: 0.954
  IC50: > 5 µM
GSK-650394
  AUC: 0.974
  IC50: > 16 µM
NPK76-II-72-1
  AUC: 0.988
  IC50: > 10.2 µM
BMS-345541
  AUC: 0.964
  IC50: > 16 µM
AZD7762
  AUC: 0.97
  IC50: > 2 µM
Bexarotene
  AUC: 0.95
  IC50: > 8 µM
Etoposide
  AUC: 0.955
  IC50: > 16 µM
YK 4-279
  AUC: 0.895
  IC50: > 10 µM

## DMS-79 (small cell lung carcinoma, suspension)
XAV 939
  AUC: 0.958
  IC50: > 5 µM
GSK-650394
  AUC: 0.982
  IC50: > 16 µM
NPK76-II-72-1
  AUC: 0.922
  IC50: > 10.2 µM
BMS-345541
  AUC: 0.897
  IC50: > 16 µM
AZD7762
  AUC: 0.797
  IC50: 1.13 µM
Bexarotene
  AUC: 0.987
  IC50: > 8 µM
Etoposide
  AUC: 0.878
  IC50: > 16 µM
YK 4-279
  AUC: 0.982
  IC50: > 10 µM

## DND-41 (T-cell leukaemia, suspension)
XAV 939
  AUC: 0.98
  IC50: > 5 µM
GSK-650394
  AUC: 0.822
  IC50: 7.95 µM
NPK76-II-72-1
  AUC: 0.469
  IC50: 0.533 µM
BMS-345541
  AUC: 0.559
  IC50: 1.42 µM
AZD7762
  AUC: 0.551
  IC50: 0.169 µM
Bexarotene
  AUC: 0.957
  IC50: > 8 µM
Etoposide
  AUC: 0.456
  IC50: 0.77 µM
YK 4-279
  AUC: 0.792
  IC50: 3.93 µM

## DSH1 (bladder, adherent)
XAV 939
  AUC: 0.988
  IC50: > 5 µM
GSK-650394
  AUC: 0.989
  IC50: > 16 µM
NPK76-II-72-1
  AUC: 0.965
  IC50: > 10.2 µM
BMS-345541
  AUC: 0.89
  IC50: > 16 µM
AZD7762
  AUC: 0.879
  IC50: 1.91 µM
Bexarotene
  AUC: 0.974
  IC50: > 8 µM
Etoposide
  AUC: 0.632
  IC50: 2.28 µM
YK 4-279
  AUC: 0.947
  IC50: > 10 µM

## DU-145 (prostate, adherent)
XAV 939
  AUC: 0.806
  IC50: 2.92 µM
GSK-650394
  AUC: 0.77
  IC50: 6.79 µM
NPK76-II-72-1
  AUC: 0.906
  IC50: > 10.2 µM
BMS-345541
  AUC: 0.956
  IC50: > 16 µM
AZD7762
  AUC: 0.908
  IC50: > 2 µM
Bexarotene
  AUC: 0.893
  IC50: > 8 µM
Etoposide
  AUC: 0.443
  IC50: 0.686 µM
YK 4-279
  AUC: 0.812
  IC50: 6.14 µM

## DU-4475 (breast, suspension)
XAV 939
  AUC: 0.989
  IC50: > 5 µM
GSK-650394
  AUC: 0.916
  IC50: > 16 µM
NPK76-II-72-1
  AUC: 0.914
  IC50: > 10.2 µM
BMS-345541
  AUC: 0.748
  IC50: 4.35 µM
AZD7762
  AUC: 0.745
  IC50: 0.532 µM
Bexarotene
  AUC: 0.984
  IC50: > 8 µM
Etoposide
  AUC: 0.17
  IC50: 0.132 µM
YK 4-279
  AUC: 0.896
  IC50: 8.26 µM

## Daudi (Burkitt lymphoma, suspension)
XAV 939
  AUC: 0.987
  IC50: > 5 µM
GSK-650394
  AUC: 0.947
  IC50: > 16 µM
NPK76-II-72-1
  AUC: 0.907
  IC50: > 10.2 µM
BMS-345541
  AUC: 0.889
  IC50: 14.1 µM
AZD7762
  AUC: 0.686
  IC50: 0.384 µM
Bexarotene
  AUC: 0.96
  IC50: > 8 µM
Etoposide
  AUC: 0.742
  IC50: 4.41 µM
YK 4-279
  AUC: 0.823
  IC50: 4.91 µM

## Detroit562 (head and neck, adherent)
XAV 939
  AUC: 0.986
  IC50: > 5 µM
GSK-650394
  AUC: 0.653
  IC50: 2.61 µM
NPK76-II-72-1
  AUC: 0.975
  IC50: > 10.2 µM
BMS-345541
  AUC: 0.954
  IC50: > 16 µM
AZD7762
  AUC: 0.682
  IC50: 0.394 µM
Bexarotene
  AUC: 0.956
  IC50: > 8 µM
Etoposide
  AUC: 0.828
  IC50: 9.39 µM
YK 4-279
  AUC: 0.669
  IC50: 1.81 µM

## EB2 (Burkitt lymphoma, suspension)
XAV 939
  AUC: 0.989
  IC50: > 5 µM
GSK-650394
  AUC: 0.903
  IC50: > 16 µM
NPK76-II-72-1
  AUC: 0.617
  IC50: 1.3 µM
BMS-345541
  AUC: 0.688
  IC50: 3.18 µM
AZD7762
  AUC: 0.636
  IC50: 0.285 µM
Bexarotene
  AUC: 0.968
  IC50: > 8 µM
Etoposide
  AUC: 0.365
  IC50: 0.441 µM
YK 4-279
  AUC: 0.962
  IC50: > 10 µM

## EB-3 (Burkitt lymphoma, suspension)
XAV 939
  AUC: 0.973
  IC50: > 5 µM
GSK-650394
  AUC: 0.953
  IC50: > 16 µM
NPK76-II-72-1
  AUC: 0.801
  IC50: 5.99 µM
BMS-345541
  AUC: 0.739
  IC50: 5.47 µM
AZD7762
  AUC: 0.897
  IC50: > 2 µM
Bexarotene
  AUC: 0.939
  IC50: > 8 µM
Etoposide
  AUC: 0.921
  IC50: > 16 µM
YK 4-279
  AUC: 0.859
  IC50: > 10 µM

## EBC-1 (lung squamous cell carcinoma, adherent)
XAV 939
  AUC: 0.863
  IC50: > 5 µM
GSK-650394
  AUC: 0.905
  IC50: > 16 µM
NPK76-II-72-1
  AUC: 0.959
  IC50: > 10.2 µM
BMS-345541
  AUC: 0.943
  IC50: > 16 µM
AZD7762
  AUC: 0.933
  IC50: > 2 µM
Bexarotene
  AUC: 0.934
  IC50: > 8 µM
Etoposide
  AUC: 0.608
  IC50: 2.07 µM
YK 4-279
  AUC: 0.741
  IC50: 3.4 µM
